Laboratory results taken from ChEMBL document CHEMBL4888484, “Replenishing the malaria drug discovery pipeline: Screening and hit evaluation of the MMV Hit Generation Library 1 (HGL1) against asexual blood stage Plasmodium falciparum ,using a nano luciferase reporter read-out” (2022).
Out of some 150,000 compounds screened, about 540 (0.36%) showed an effect of 50% or more. This is one part of the list.

The molecules below were run on Plasmodium falciparum (assay: Primary screen in NF54 nanoGlo assay, in single point, at 2uM, 72h; a lower Z score goes with more inhibition). Settings: timepoint 72 hour.
Type: functional, Erythrocyte

| Structure (SMILES) | % Inhibition [%] | Z score |
| --- | --- | --- |
| CN1N=C(C(=O)N2CC3CCCCC3C2)CCC1=O (stereo not given) | -11 | 1.41 |
| CC[C@H](Nc1nc(C)nc2c1cnn2C)c1nc2ccccc2[nH]1 | 3 | -0.47 |
| CO[C@@]12CC[C@H](O)C[C@@H]1N(C(=O)c1nccn1C)CC2 | -15 | 1.99 |
| CCCCn1c(N)c(N(CCOC)C(=O)c2cc(-c3ccc(OC)cc3)nc3ccccc23)c(=O)[nH]c1=O | -6 | 0.7 |
| CC(C)c1nnc2c3ccccc3nc(N3CCN(C(=O)c4ccc(Cl)cc4)[C@@H](C)C3)n12 | -1 | 0.12 |
| CC(C)c1noc(NC(=O)N[C@H]2CCN(CC(F)F)C2)n1 | -5 | 0.98 |
| C[C@@H](COC(=O)c1ccc2nncn2c1)COc1ccccc1 | -9 | 1.56 |
| O=C1C[C@@H](c2ccccc2)N(C(=O)Cc2cccc(O)c2)CCN1 | -9 | 1.05 |
| CN(Cc1ccsc1)C(=O)c1ccc2nc(C3CCCCC3)oc2c1 | -13 | 1.58 |
| COc1ccccc1-c1cc(C(=O)NC2CCN(Cc3ccccc3)CC2)nc2cc(C(C)(C)C)nn12 | -8 | 0.88 |
| Cc1cc(Br)oc1C(=O)N1CCN(c2oc(C3CC3)nc2C#N)CC1 | -10 | 1.95 |
| COCCN(CC(=O)N1CCc2sccc2[C@@H]1COc1cccc(F)c1)C(=O)C(C)C | -19 | 3.67 |
| CC(C)CCN[C@@H]1C[C@@H](O)[C@H](CO)[C@H]1Cc1ccnc(-c2ccccc2F)n1 | 34 | -3.85 |
| COCc1nc([C@@H]2CCCN3CCCC[C@H]23)n(CC(C)(C)O)n1 | -30 | 2.67 |
| CN(C)S(=O)(=O)N1C[C@H]2CC[C@@H](C1)N(Cc1cc3ccccc3o1)C2 | 4 | -0.54 |
| Cc1nc(N(C)C[C@H](C)C(=O)O)c(Cl)cc1C#N | -10 | 0.98 |
| FC(F)(F)c1ccc(Oc2ccc(-c3ccccc3)cc2)nc1 | -3 | 0.38 |
| COc1cc(F)ccc1CN[C@@H](C)c1n[nH]c(C)n1 | -11 | 1.34 |
| CN(Cc1ccccc1)S(=O)(=O)c1cc(C(=O)N2CCCC2)cs1 | -10 | 0.99 |
| NC(=O)c1cncc(N2CCC[C@H]2c2ccccc2Br)n1 | 0 | -0.04 |
| Cc1ccc(NC(=O)CN2C(c3ccccc3)=C[C@@H](c3ccc(C)cc3)n3nnnc32)cc1 | -20 | 1.96 |
| COc1ccc(C(=O)N2CCn3nc(Cc4ccccc4)cc3C2)cn1 | 2 | -0.37 |

| Structure (SMILES) | % Inhibition [%] | Z score |
| --- | --- | --- |
| COc1ccc(NCC(=O)Nc2ncc(Cc3cccc4ccccc34)s2)cc1 | -3 | 0.34 |
| O=C(CN1C(=O)COc2ccc(Cl)cc21)Nc1cccc(-c2nnco2)c1 | -14 | 1.88 |
| Cc1c(CCNC(=O)N2CCC(C)CC(C)C2)cnn1C (stereo not given) | 4 | -0.5 |
| CC(NC(=O)C1(O)CCCC1)C1COc2ccccc21 (stereo not given) | -2 | 0.27 |
| Cc1cnc(CNC(=O)C2Cc3ccccc3C2)o1 | -5 | 0.94 |
| Cc1nc(NCc2ccc(F)cc2)nc2c1C(=O)c1ccccc1-2 | -6 | 0.85 |
| CCCc1cc(C(=O)NC(C)(C)CCC(=O)NC)n[nH]1 | 2 | -0.47 |
| Cc1nnsc1CNC(=O)[C@H]1CCN(c2ccc(C(F)(F)F)cn2)C1 | -30 | 2.67 |
| C[C@@H](CN(C)C(=O)NCc1nnc2ccccn12)c1nccs1 | -2 | 0.3 |
| Cc1cccc(N(C)S(=O)(=O)c2cnn(C3CCC3)c2)n1 | -6 | 1.11 |
| CC[C@@H](CO)NC(=O)N[C@H]1C[C@H](c2ccccc2C)C1 | -2 | 0.38 |
| O=C(NCC1CCCCC1O)C(=O)Nc1cccc2c1CCCC2 (stereo not given) | -5 | 0.46 |
| C=CCn1cc(CNCCCC(C)(C)CO)c(C)n1 | -9 | 0.87 |
| CC(C)(C)n1ncnc1NC(=O)Cn1cccn1 | -1 | 0.13 |
| Cc1ccc(Nc2nc(C)c(C(=O)NCc3ccccn3)s2)c(C)c1 | 34 | -3.87 |
| O=C(Nc1ncc(Cc2ccc(Cl)cc2)s1)c1ccc2c(c1)OCCO2 | 30 | -3.39 |
| Cc1ccccc1[C@@H](NCc1nnc(C2CC2)n1C)C(C)(C)C | -6 | 0.93 |
| Cc1occc1C(=O)NC1CCN(Cc2cnc(C(C)C)s2)CC1 | 29 | -3.24 |
| CC(C)C1OCCCC1CNC(=O)CN1CCc2ccccc2C1=O (stereo not given) | 2 | -0.34 |
| COc1ccc(C)cc1NC(=O)N1CC[C@H](CN2CCCCC2)C1 | -14 | 1.54 |
| Cc1cc(C)cc(CN2CCN(C(=O)Cn3nnnc3CN3CCCC3)CC2=O)c1 | -4 | 0.39 |
| CCS(=O)(=O)NCC(c1ccco1)c1ccco1 | -20 | 2.9 |

| Structure (SMILES) | % Inhibition [%] | Z score |
| --- | --- | --- |
| CC(=O)Nc1nc(C(=O)N[C@@](C)(CO)C2CCCCC2)cs1 | -5 | 0.98 |
| Brc1cnc2c(N3CC[C@]4(CCOC4)C3)ccnc2c1 | 7 | -0.75 |
| Cn1cc(S(=O)(=O)N2CCOc3c2cccc3C(F)(F)F)cn1 | -3 | 0.65 |
| Cc1nonc1CC(=O)NCCc1cccc(Br)c1C | 1 | -0.2 |
| C[C@H](NCC(=O)NC(=O)NC1CC1)c1ccc(F)c(Cl)c1 | -2 | 0.2 |
| Cc1nc(CN2CCC(c3ncon3)CC2)c2ccccn12 | -10 | 1.97 |
| O=C(CS(=O)(=O)C1CC1)N1CCc2ccsc2C1 | -4 | 0.64 |
| CS(=O)(=O)[C@@H]1C[C@@]1(C#N)COc1ccc(F)cc1F | -1 | 0.28 |
| Cc1cc(C)cc(NC(N)=NC2CC2)c1 | -3 | 0.35 |
| C[C@H](NC(=O)c1cnc(Cc2c(Cl)cccc2Cl)nc1O)C1CC1 | -1 | 0.17 |
| COCc1nc2ccccc2c(C)c1C(=O)OCC(=O)NCC1(N2CCOCC2)CCCCC1 | -7 | 1.02 |
| Cc1cccc(C(=O)N2CCC[C@H](C(=O)N3CCN(C)CC3)C2)c1C | -11 | 1.02 |
| O=C(N[C@@H]1c2ccccc2C[C@H]1O)c1cnc(C2CC2)[nH]c1=O | -8 | 1.09 |
| Cc1cc(NC(=O)C(=O)NCC[C@H](O)c2ccco2)no1 | -11 | 1.54 |
| CCOc1ccccc1C(=O)N[C@H]1CCN(c2cc(-c3ccc(Cl)cc3)n[nH]2)C1 | -16 | 1.63 |
| CC(=O)N1CCCN(S(=O)(=O)c2cccs2)CC1 | -12 | 2.3 |
| COCCN(Cc1ccc(C)s1)C[C@H](C)O | -6 | 1.09 |
| O=C1COc2ccccc2N1CCc1nc(C2CC2)n[nH]1 | -8 | 1.28 |
| Cc1cc(C(=O)N2C[C@@H]3[C@H]4CC[C@H](CC4)[C@@H]3C2)c2c(C)noc2n1 | 2 | -0.34 |
| COc1ccccc1CCNC(=O)[C@H]1CCCN(c2ccc(=O)n(C)n2)C1 | -15 | 2.85 |
| COc1ccc(CCc2nnc(NC(=O)C[C@H](C)c3ccccc3)s2)cc1 | -10 | 1.67 |
| CN(Cc1nc2c(F)cccc2[nH]1)C[C@H]1CCS(=O)(=O)C1 | -8 | 0.69 |

| Structure (SMILES) | % Inhibition [%] | Z score |
| --- | --- | --- |
| CC(C)c1nn(C)cc1CNCCc1cccc2cccnc12 | -3 | 0.6 |
| CCn1c(CN2CCC(CO)(CCCc3ccccc3)CC2)nc2ccccc21 | -15 | 1.34 |
| CC(=O)Nc1nc(CN2CCc3ccccc3C2)cs1 | -5 | 0.45 |
| Cc1nc2cc(NS(C)(=O)=O)cc(C(=O)N(C)Cc3cccs3)c2n1Cc1ccccc1 | -14 | 1.81 |
| Cc1oc(-c2cccs2)nc1-c1nccn1[C@@H]1COC2(CCCC2)C1 | -5 | 0.55 |
| O=C(Nc1ccn2nccc2c1)c1ccc(Oc2ccccc2)cc1 | -5 | 0.72 |
| Cc1nc(CNC(=O)Nc2ccncc2)cs1 | 4 | -0.7 |
| N#CCCn1ccnc1C(=O)c1cccnc1 | -18 | 1.82 |
| CC(C)(C)NC(=O)CN1C(=O)NC(C)(C)C1=O | -3 | 0.42 |
| CC(C)CC(=O)NC[C@H]1CCC(=O)N(Cc2ccccc2)CC1 | -9 | 1.08 |
| CN(C)S(=O)(=O)c1ccc(N2CCCCC2)c(C(=O)NCCCN2CCCCC2)c1 | -7 | 1.34 |
| COc1cccc(C2=NS(=O)(=O)N(C)C(C(=O)N3CCCCC3)=C2)c1 | -6 | 1.12 |
| Cc1ccc(NC(=O)c2c(C)nc3sc(C(=O)NCc4ccccc4)c(N)c3c2-c2ccccc2Cl)c(C)c1 | 90 | -8.85 |
| CCN1CCN(Cc2cccn2-c2ccc(Cl)cn2)CCC1=O | 1 | -0.13 |
| CCOc1cccc(COC(=O)c2cncc(C)c2)n1 | -14 | 1.44 |
| CC(C)(C)OC(=O)[C@@H]1Cn2c(n[nH]c2=O)CN1 | -8 | 1.52 |
| CC(C)c1cnc(N2CCN(C[C@@H](O)CN(C)C)CC2)nc1 | 8 | -1.67 |
| C[C@]1(c2ccc(S(C)(=O)=O)cc2)NC(=O)N(CC(=O)N2CCN(c3ncccn3)CC2)C1=O | -8 | 1.22 |
| Cc1cc(-c2nc(CC(N)=O)nn2CCO)cc2sc(N)nc12 | -3 | 0.37 |
